viability, T/C data for one molecule are collected here from PubChem BioAssay AID2060602 (Molecular Pharmacology Branch, DTP, NCI, 2025).

The experiment has as its system 648629-189-R-J1-PDC complex spheroids viability. Description: Anticancer human tumor 648629-189-R-J1-PDC patient-derived bladder carcinoma cell line growth inhibition [CLK]. Particulars: compound alone 0.316 µM; stronger effect = lower value. An excerpt: A high-throughput screen of multi-cell type tumor spheroids was designed to identify active combinations of […] and targeted small molecules. Complex spheroids include a stromal component modeled by human endothelial cells (HUVEC) and fibroblasts modeled by human mesenchymal stem cells (MSCs). The concentration ranges selected for each drug and investigational agent were based upon clinically achievable concentrations if the clinical Cmax of the agent was known.
Compounds. The drugs and investigational agents: cirtuvivint (SM08502; NSC835563), CC-671 (NSC850746), vemurafenib (NSC761431), tapotoclax (NSC804041), sotorasib (NSC818433), adagrasib (NSC831453), MRTX-1133 (NSC836407), BAY2416964 (NSC825713), copanlisib (NSC816437), inavolisib (NSC800729), abemaciclib (NSC768073), osimertinib (NSC779217), entinostat (NSC756642), eltanexor (KPT-8602, NSC794443), venetoclax (NSC766270), ceralasertib (NSC777638), bortezomib (NSC756655), olaparib (NSC753686), talazoparib (NSC767125), alisertib (NSC759677), peposertib (NSC802822), gemcitabine (NSC613327), 5-fluorouracil (NSC19893), SN-38 (NSC673596), oxaliplatin (NSC266046), paclitaxel (NSC125973), and doxorubicin (NSC123127), were obtained from the National Cancer Institute (NCI) Developmental Therapeutics Program Chemical Repository. […] If the clinical Cmax for an agent had not been determined, the highest concentration tested was 10 microM. […]

Certain results were filed several times, with different values. They are shown here; other results are not. An entry can have further records. Results that share an entry are repeats across runs, samples, wells, individuals or studies.
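Note: drug exposure lasted seven days before viability readout; 100% = DMSO vehicle control wells.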

Consider `CN1CCN(c2cc(C(=O)Nc3cc4cc(-c5cnn(C)c5)ccc4cn3)ccn2)CC1`, for which the viability, T/C was 38.4, 23.4, 28.4, 44.1, 45.8, 42.1, 51.9, 44.4, 37.2, 49.6, 48.6, 47.1%.
